PubChem BioAssay AID1159614 (National Center for Advancing Translational Sciences (NCATS), 2016)
The campaign covered roughly 45,000 compounds. About 65 (0.1%) were called active. The call rests on the fitted dose curve; in most records, active means well fitted activation curve with a large enough effect; inconclusive means small, poorly fitted or top-dose-only effect; inactive means no such curve, though single readings can be large or run the other way. Some of the results follow.

target: Galactocerebrosidase (Homo sapiens) (UniProt P54803); assay: A Novel Cell-Based Assay to Identify Small Molecules for B -Galactocerebrosidase; settings: 145M-Twi-hGALC-G270D cells (Twitcher mouse brain line with human GALC G270D), HMU-beta-Gal fluorescence, 48 h; series mostly up to 57.5 µM; activation: at the top concentration; further: 0% is about no effect; nearly all actives have a fitted effect of over 65% in size
Procedure, shortened: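 Mutant human GALC (G270D), stably expressed in a Twitcher mouse brain cell line lacking endogenous GALC, is measured in live-treated cells via 6-hexadecanoylamino-4-methylumbelliferyl-β-galactoside hydrolysis (0.1 mM final, pH 5.2) with fluorescent detection.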

Chain of UniProt P54803 (P54803 whole entry, looked up): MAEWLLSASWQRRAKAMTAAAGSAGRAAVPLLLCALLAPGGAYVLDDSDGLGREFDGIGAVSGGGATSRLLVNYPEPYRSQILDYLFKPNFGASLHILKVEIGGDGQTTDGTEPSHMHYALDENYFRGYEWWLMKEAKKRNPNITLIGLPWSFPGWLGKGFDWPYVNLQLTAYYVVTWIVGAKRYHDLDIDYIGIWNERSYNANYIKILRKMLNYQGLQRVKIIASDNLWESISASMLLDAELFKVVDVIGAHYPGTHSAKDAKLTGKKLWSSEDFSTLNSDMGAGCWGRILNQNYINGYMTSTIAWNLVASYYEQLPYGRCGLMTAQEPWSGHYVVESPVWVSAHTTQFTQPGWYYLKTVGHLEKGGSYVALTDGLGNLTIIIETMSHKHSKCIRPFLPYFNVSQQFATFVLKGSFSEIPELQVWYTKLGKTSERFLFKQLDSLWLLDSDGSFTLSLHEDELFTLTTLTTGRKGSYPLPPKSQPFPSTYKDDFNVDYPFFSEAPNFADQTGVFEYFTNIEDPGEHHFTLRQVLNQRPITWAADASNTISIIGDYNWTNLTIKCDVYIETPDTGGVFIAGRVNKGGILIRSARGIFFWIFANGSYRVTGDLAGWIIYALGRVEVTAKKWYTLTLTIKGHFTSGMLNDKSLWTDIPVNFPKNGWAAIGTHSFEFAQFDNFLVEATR

activation, inactive:
Cc1ccc(CNS(=O)(=O)c2cc(Br)cc3c2N(C(=O)C2CC2)CC3)cc1 -5.44%, Cc1ccc2oc(-c3cccc(NC(=O)c4ccc(N5CCC(C)CC5)c([N+](=O)[O-])c4)c3)nc2c1 -23.4%, COc1ccc(Nc2nc(Nc3ccc(OC)cc3OC)nc(N3CCOCC3)n2)c(OC)c1 -19.1%, CC(C)(C)C(=O)Nc1nc2nc(-c3ccccc3)cc(=O)n2[nH]1 -26.6%, CCCCNC(=O)CN1C(=O)c2c(c3ccccc3n2C)C1c1ccc(OC)cc1 (stereo not given) -7.07%, CC(=O)c1ccc(NC(=O)CSc2c(C(C)C)cnc3c2c(=O)n(C)c(=O)n3C)cc1 -2.44%, C[C@]12C=CC(=O)C=C1CC[C@@H]1[C@@H]2C(=O)C[C@@]2(C)[C@H]1CC[C@]2(O)C(=O)CO -8.54%, Cc1ccc(S(=O)(=O)N2CCCc3cc(NS(=O)(=O)c4ccc(C)c(C)c4)ccc32)cc1 -6.81%, Cc1oc(-c2ccc(Cl)cc2)nc1CN1CCCC(C(=O)NCCc2ccccc2)C1 (stereo not given) -11%, COc1ccc(C2CC(=O)c3cc(-c4nc(-c5cccc([N+](=O)[O-])c5)cs4)c(=O)n(-c4ccc(F)cc4)c3C2)cc1 (stereo not given) -11.1%, C=CCn1c(=O)n([C@@H]2O[C@H](CO)[C@@H](O)[C@H]2O)c2nc(N)[nH]c(=O)c21 -6.82%, O=C(CS(=O)(=O)c1cccc2nsnc12)N1CCN(c2ccccc2)CC1 -14.6%, CCOc1ccc(CNCCSc2nnnn2C)cc1OC 1.43%, O=C(Cn1c(=O)n(Cc2ccc(C(=O)NCc3ccc4c(c3)OCO4)cc2)c(=O)c2ccccc21)Nc1ccc(F)cc1F -5.98%, Cc1c(-c2nnc(SCC(=O)Nc3ccc(Br)cc3)o2)nnn1-c1ccc(F)cc1 -14.4%, COC(=O)c1ccn(-c2nc(-c3ccc(Cl)cc3)cc(C(F)(F)F)n2)n1 -15.3%, COC(=O)c1ccccc1NC(=O)c1cn2c3c(ccc(Cl)c3c1=O)OC(C)C2 (stereo not given) -14.3%, CC(C)c1ccc(CN(Cc2ccco2)c2cnc(S(C)(=O)=O)nc2C(=O)Nc2ccccc2)cc1 -8.46%, CCCCNC(=O)C1CCN(c2nc3ccc(C)cc3[nH]2)CC1 -7.07%, COc1ccc(-c2nc(C)c(CCNS(=O)(=O)c3ccc(F)cc3)s2)cc1OC -23.4%, CCc1ccc(Sc2cc(C(=O)NCCCN3CCC(C)CC3)c3ccccc3n2)cc1 -13%, CCOc1ccc(/C=C/c2nc(C#N)c(N3CCC(C)CC3)o2)cc1 -22.8%, COc1ccccc1CNC(=O)CCCCn1c(=O)c2ccccc2n(CC(=O)Nc2cccc(Cl)c2)c1=O -8.99%, COC(=O)c1cc2oc3ccccc3c2n1Cc1ccccc1Cl -10.2%, COc1cc(NC(=O)CCS(=O)(=O)c2ccc3c(c2)n(C)c(=O)c(=O)n3C)cc(OC)c1 -0.378%, Cc1cccc(NC(=O)N2CCN3CCCCC3C2)c1C (stereo not given) -3.37%, COc1cccc(NC(=O)Cn2c(-c3nonc3N)nc3ccccc32)c1 17%, COc1ccccc1N1CCN(c2csc3ccccc3c2=O)CC1 -16.8%, Cc1cccc(C)c1Nc1c(-c2ccsc2)nc2cccc(C)n12 -2.21%, CN1CCN(C2=Nc3ccccc3Sc3ccc(Cl)cc32)CC1 -8.14%, CCc1ccc(NC(=O)C2CCCN(c3nnc(C)c4c(C)n(-c5ccccc5)nc34)C2)cc1 (stereo not given) -14.4%, O=C(Nc1cc(Cl)ccc1Cl)c1cc(S(=O)(=O)N2CCc3ccccc3C2)ccc1F -7.84%, COc1ccc2oc(-c3ccc(NC(=O)c4ccc(Cl)cc4Cl)cc3)nc2c1 -8.23%, Cc1ccc(-n2ncc3c(N4CCN(c5ccc(F)cc5)CC4)ncnc32)cc1 -7.76%, COc1ccc(CNC(=O)C(=O)Nc2cccc(C)c2C)cc1 8.22%, O=c1c(-c2cc(-c3ccccc3)nc3c2COc2ccccc2-3)coc2ccc(Cl)cc12 1.89%, CCOC(=O)CSc1nc2sc3c(c2c(=O)n1-c1ccc(OC)cc1)CC(C(C)C)OC3 (stereo not given) -19.9%, COc1ccccc1NC(=O)Cn1c(=O)n(CC2CCC(C(=O)NCCc3ccccc3)CC2)c(=O)c2ccccc21 (stereo not given) 0.519%, CCOc1ccc(CNC(=O)C2CCN(C(=O)N3CC(CC)Oc4ccc(C)cc43)CC2)cc1OC (stereo not given) -17%, Cc1cc(NC(=O)c2cc(-c3ccc(Cl)c(Cl)c3)on2)n(-c2ccccc2)n1 -7.75%, Cc1cc(Br)ccc1NC(=O)c1c(C)oc2ncnc(N3CCCCC3)c12 -19.9%, Cc1ccccc1N1CC(c2nc3ccccc3n2Cc2ccc(Br)cc2)CC1=O (stereo not given) -29.5%, COc1ccc(OC)c(C(=O)CN2C(=O)N(c3ccc(C)cc3)S(=O)(=O)c3ccccc32)c1 -10.2%, Cc1ccc(CNS(=O)(=O)c2ccc3c(c2)CC(C)N3C(=O)C2CCC2)cc1 (stereo not given) -20%, COC(=O)c1c(-c2cccs2)csc1NC(=O)c1ccc(C)cc1 -22.2%, O=C(Cn1c(-c2cccs2)cc2ccccc21)N1CCN(c2ccc(F)cc2)CC1 -11%, Cc1ccccc1NC(=O)CCn1nc(-c2ccccc2)c2ccccc2c1=O -11.6%, CCOc1ccc(Sc2cc(C(=O)NCc3ccccc3Cl)c3ccccc3n2)cc1 -7.79%, COCCNC(=O)CN1C(=O)COc2ccc(S(=O)(=O)N3CCCC3)cc21 8.93%, CCN(CC)CCOC(=O)c1ccc(NC(=O)c2cc3cc(OC)ccc3oc2=O)cc1 -1.94%, CCc1ccc(NC(=O)Cn2c(=O)n(CCCC(=O)NCCc3ccc(OC)c(OC)c3)c(=O)c3ccccc32)cc1 -9.61%, CCOC(=O)N1CCc2c(sc3c2C(=O)NC(c2ccc(C(=O)OC)cc2)N3)C1 (stereo not given) -20.6%, Cc1nnc(SCC(=O)Nc2ccc(N(C)C)cc2)[nH]c1=O -17.3%, Cc1c(Cl)cccc1-n1nc(C)c2c(C)cc(=O)n(CC(=O)N3CCCc4ccccc43)c21 -36.8%, CCOC(=O)c1ccc2c(c1)N(Cc1ccc(F)cc1Cl)C(=O)c1ccccc1S2 1.67%, Cc1cnc(=O)[nH]c1SCC(=O)Nc1cc(C(F)(F)F)ccc1Cl -9.09%, Cc1cc2oc3c(c(=O)c2cc1C)C(c1ccc(C(C)C)cc1)N(c1nc(C)c(C)s1)C3=O (stereo not given) -14.9%, CCCOc1ccc(CNC(=O)C2CCN(C(=O)c3sccc3-n3cccc3)CC2)cc1 1.78%, CCCNC(=O)C1CCN(c2nc3ccc(C)cc3[nH]2)CC1 4.67%, COc1ccc(-c2nc3ccccc3n3c(-c4ccc(OC)cc4)c4c(=O)n(C)c(=O)n(C)c4c23)cc1 -19%
